# Data as given in the supplement of paper PMC11417369.
# ± gives the standard deviation of the averaged measurements. The list shows a part of the results.
# Tested on: PfAP2-I AP2 domain 3 (GST-tagged)
# Experiment: gcPBM binding intensity (ln(normalized median fluorescence intensity)); higher = stronger DNA binding
# Outline: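 GST-tagged P. falciparum DNA-binding domains produced in E. coli were incubated for 1 h on an Agilent 4 × 180k array of primer-extended double-stranded 36-bp intergenic genomic probes with negative controls. Binding intensity is the highest Masliner-normalised natural-log median intensity across replicate spots of either probe orientation, with bound protein detected by Alexa488 anti-GST antibody at 488 nm.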
row,Sequence,gcPBM binding intensity (ln)
1,TATAGAAGCAAATTATGTACACAATATGGAAAATCA [XGTACX_site3345],8.11 ± 0.49
2,AACACCAATTCATATGCACACACATCTGCATATTAT [CACACA_site8523],9.15 ± 0.29
3,TTTATAAATATTCTCACACACTTTTTATTTTAACAA [CACACA_site6454],7.7 ± 0.59
4,GTCGAGGATATATAAAGTACATATATATATATGATA [XGTACX_site1128],7.87 ± 0.38
5,TAATGTATCTAAAATTGTACAAATATAAATATAAAT [XGTACX_site2764],7.79 ± 0.54
6,ATGAATAAATAAGACACACACGAAAATAAGTAAAAA [CACACA_site4216],8.13 ± 0.81
7,TATTTTGATTATTCAGTGTATAAATATATATATATA [CACACA_negctrl_site545],8.95 ± 0.23
8,TACAAATATATATGCACACACATATACATACAGATA [CACACA_site5238],9.32 ± 0.35
9,CATATATACGCATACACACACACACCCACACCCACA [CACACA_site1725],8.21 ± 0.49
10,TATTTATACCTATACACACACACACGGATATTTATA [CACACA_site7123],7.87 ± 0.57
11,ATATGCTTATTGTAAAGTACATTATTATTTTTCCTA [XGTACX_site5479],7.62 ± 0.53
12,AATTAACAAAAACACACACACACACCGACAAAAAAA [CACACA_site4444],8.13 ± 0.33
13,GATAAAATCACTGGTGCATGTAGATATATAATATTA [TGCATGCA_site589],9.12 ± 0.085
14,AAAAAAAAACAAAAAAGTACAAAATAAAAATACGTT [XGTACX_site4566],7.76 ± 0.66
15,CTCTTCATATATAATTGTACACACAAAAACGACATT [XGTACX_site4287],8.42 ± 0.21
16,AATAAATATATACATTGTACATATATAATATATATA [XGTACX_site1458],7.94 ± 0.37
17,TAAATTATAATATGCACACAAAATGTTATATTAAAA [CACACA_site376],8.62 ± 0.23
18,TATATATATTTTGGCTGTACATCAGCGTATATTTTT [XGTACX_site3233],7.67 ± 0.54
19,CCTATCCATGCATATACACACATATCTATTTATATA [CACACA_site6886],8.7 ± 0.59
20,ATTTACCTATATATTTGTACTTACATAATGCTACCT [XGTACX_site2693],8.24 ± 0.67
21,TAAAGAGAGACATCAACACACATACGTATGTATAGA [CACACA_site4896],7.76 ± 0.64
22,TAAAAAAAAATATATAAACACACATATTTATATACA [CACACA_site8469],7.22 ± 0.38

row,Sequence,gcPBM binding intensity (ln)
1,ATTCTATATGAAAAATGTACAAATAAAAATTCTAAG [XGTACX_site8900],7.57 ± 0.49
2,CCAATGTTTTCTTGTGTACACATCATTAAAGAAAAA [CACACA_site5300],8.46 ± 0.014
3,CACGCATACAGACACACACACACACCGATATATATA [CACACA_site8113],8.34 ± 0.76
4,CATGAAAATATTATGTGTACTTAATGCACATTCAAA [XGTACX_site1952],10.3 ± 0.3
5,AGGAGGATAGTTCACAGTACCCAGGAAATCTGCGGA [XGTACX_site4928],8.26 ± 0.96
6,TATGCAATAAAATATACACACAATATACTTATATAT [CACACA_site7691],7.87 ± 0.4
7,TTTATTTTCCAAAGGGTGCACATAGTTAAAACGATA [GTGCAC_site9855],11.1 ± 0.29
8,AATAAATACACATACACACACGACGCTAGTATATGT [CACACA_site6627],7.64 ± 0.39
9,AGAATAAATATGTGGTGTTATAGTATTAATGTTAAT [TGCATGCA_negctrl_site62],7.75 ± 0.58
10,ATAAATATACCAATCGGTACACATTTATACAAACAA [XGTACX_site7484],7.75 ± 0.48
11,GCTATAAATATAATCACACATAAATATATAATATAT [CACACA_site5144],7.67 ± 0.38
12,TCCTTATTTCATATTTTTAAATAATACAAAAAAAAA [CACACA_negctrl_site773],7.62 ± 0.31
13,GAATATTAAATATTATCACACACATAATTATTTCCA [CACACA_site8730],7.88 ± 0.45
14,ATATATATTTATAATCGTACGTACCTAACAATACAA [XGTACX_site4510],8.14 ± 0.61
15,AAATAAAAAAAAGCCTGTACATGTTCATAAATTTTT [XGTACX_site7925],7.59 ± 0.53
16,CTTAAATTAATTTGGGTGCATATATTTGTACACATT [GTGCAC_site9948],10.8 ± 0.53
17,TTCTATTTATATGTGGGTACTAATTTTTTTTCTTTT [XGTACX_site7104],7.73 ± 0.65
18,TGAATAAAATATTATACACACATATGTATATAACAT [CACACA_site974],7.64 ± 0.37
19,TTAATTTTTTTTTAAACACACATTTTTTTATTTAAG [CACACA_site2738],7.41 ± 0.7
20,GTTATAAATAATAAATAAATAATCAAATGAAGAATG [CACACA_negctrl_site653],7.81 ± 0.55
21,TATTAATTTTTTTTTTTTTTTTTTTTTTTTTTTTTT [CACACA_negctrl_site1329],10 ± 0.17
22,AAAAAAAAATTAAAATGTACACATAAAAAAAAAAAA [XGTACX_site794],8.06 ± 0.8
